Screen size: about 310,000 compounds; about 14,000 (4.5%) showed an effect of 50% or more. The effect is printed as a negative number. Some of the results follow.
molecular target: human ether-à-go-go-related gene (hERG) potassium channel (human, UniProt Q12809); test: primary screen, population patch clamp on CHO cells stably expressing hERG
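Further: peak tail current of the secondary pulse compared with the same well before compound.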

Sequence of human ether-à-go-go-related gene (hERG) potassium channel (Q12809 whole entry, looked up): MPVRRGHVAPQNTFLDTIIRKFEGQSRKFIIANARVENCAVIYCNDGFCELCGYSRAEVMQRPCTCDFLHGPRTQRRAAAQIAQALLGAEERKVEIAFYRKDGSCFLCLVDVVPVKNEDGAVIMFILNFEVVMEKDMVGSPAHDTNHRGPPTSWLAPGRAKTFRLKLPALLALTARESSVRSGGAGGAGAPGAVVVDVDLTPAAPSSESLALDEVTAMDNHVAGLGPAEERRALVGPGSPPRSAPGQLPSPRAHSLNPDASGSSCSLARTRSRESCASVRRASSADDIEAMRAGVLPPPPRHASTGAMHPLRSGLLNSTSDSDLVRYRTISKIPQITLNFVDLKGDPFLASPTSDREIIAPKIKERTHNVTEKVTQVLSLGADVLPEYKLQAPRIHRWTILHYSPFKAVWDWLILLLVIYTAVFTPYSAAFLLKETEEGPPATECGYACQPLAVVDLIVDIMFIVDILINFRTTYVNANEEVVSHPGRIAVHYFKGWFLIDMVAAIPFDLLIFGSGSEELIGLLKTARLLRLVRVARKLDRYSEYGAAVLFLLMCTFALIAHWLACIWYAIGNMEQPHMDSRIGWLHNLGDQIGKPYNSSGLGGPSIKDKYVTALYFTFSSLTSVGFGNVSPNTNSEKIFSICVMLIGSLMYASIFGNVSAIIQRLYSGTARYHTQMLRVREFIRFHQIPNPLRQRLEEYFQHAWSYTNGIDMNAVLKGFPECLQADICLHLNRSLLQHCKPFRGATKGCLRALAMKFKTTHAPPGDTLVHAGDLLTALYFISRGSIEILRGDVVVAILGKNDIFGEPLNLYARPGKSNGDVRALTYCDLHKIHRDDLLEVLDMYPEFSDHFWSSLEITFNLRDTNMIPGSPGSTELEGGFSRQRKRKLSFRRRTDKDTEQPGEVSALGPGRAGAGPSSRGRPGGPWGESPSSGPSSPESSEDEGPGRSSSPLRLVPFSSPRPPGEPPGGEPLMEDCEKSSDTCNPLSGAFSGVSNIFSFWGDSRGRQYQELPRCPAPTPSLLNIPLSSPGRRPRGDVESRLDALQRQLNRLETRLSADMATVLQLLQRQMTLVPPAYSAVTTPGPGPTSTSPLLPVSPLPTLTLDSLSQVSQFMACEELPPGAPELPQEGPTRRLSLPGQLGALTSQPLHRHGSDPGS

Row | SMILES | hERG current change (%, negative = inhibition) at 10uM
1 | O=C(O)/C=C/S(=O)(=O)c1ccc2ccccc2c1 | 15.4%
2 | CCOc1ccc(N(CC(=O)Nc2ccccc2C)S(=O)(=O)c2c(C)[nH]c(=O)[nH]c2=O)cc1 | 3.24%
3 | CCCOc1cccc(/C=N/NC(=O)c2csc(C)c2C)c1 | 7.52%
4 | CCN(CC)CCN1CCn2c3c(c4cc(C)ccc42)CCCC31.Cl (stereo not drawn) | -76.3%
5 | Cc1nnsc1-c1onc(C)c1C(=O)O/N=C/c1ccc(Cl)cc1 | 9.66%
6 | Cl.O.Oc1ccc2c3c1O[C@H]1c4[nH]c5ccccc5c4C[C@@]4(O)C(C2)N(CC2CC2)CC[C@]314 | -55.4%
7 | CCc1nnc(NC(=O)CCC(=O)NC2CC2)s1 | -50.5%
8 | CC(C)(C)NC(=O)CSc1nc(O)cc(=O)n1-c1ccccc1 | -1.47%
9 | O=C(NCc1ccon1)c1ccc(OC2CCN(CCc3ccccc3)CC2)cc1 | -66.6%
10 | CCC(C)NCCOCCOc1ccc(C)cc1Br.O=C(O)C(=O)O (stereo not drawn) | -41%
11 | COc1ccc(-c2csc(NC(=O)C3=NN(c4ccccc4)C(=O)CC3)n2)cc1 | -0.387%
12 | Clc1cc(NCc2cccs2)ccc1N1CCOCC1 | 3.84%
13 | Cc1ccc(NC(=O)Nc2cccc(C(F)(F)F)c2)nc1 | 22.8%
14 | Cc1ccc(NC(=O)c2c(C)nc(Nc3nc4ccccc4o3)nc2C)cc1 | 9.04%
15 | COC(=O)c1ccccc1OCCCN(C)C.O=C(O)C(=O)O | -17.4%
16 | Cc1ccccc1OCC(=O)Nc1ccccc1NC(=O)c1ccco1 | -7.72%
17 | Cc1cccc(/C(N)=N/OC(=O)N2c3ccccc3Sc3ccccc32)c1 | -1.7%
18 | CC(=O)c1ccc(NC(=O)C(C)OC(=O)CCCN=C2NS(=O)(=O)c3ccccc32)cc1 (stereo not drawn) | 13.6%
19 | Cc1ccccc1-n1nc2c(c1NC(=O)C1CCCC1)CS(=O)(=O)C2 | 3.73%
20 | COc1ccc2ccccc2c1C(O)c1nccn1C (stereo not drawn) | -31.9%
21 | Nn1c(SCC(=O)N2CCCc3ccccc32)nnc1-c1ccc(Cl)cc1 | -3.32%
22 | COc1ccc2c(CC(=O)NCc3cccs3)coc2c1 | 4.22%
23 | O=C(NCCc1c[nH]c2ccccc12)OCCCCOC(=O)NCCc1c[nH]c2ccccc12 | 4.25%
24 | O=C(CCC(=O)OCc1ccc(C(=O)Oc2ccc(Cl)cc2)cc1)Nc1ccccc1 | 15.5%

— PMC4336329 (PLoS ONE, 2015)
